Screen size: about 50,000 compounds; about 800 (1.6%) showed an effect of 50% or more. This is one part of the list.

The target of this assay is Bcl-2-like protein 10 (Homo sapiens) (UniProt Q9HD36). As to the kind of experiment: Phenotype converters, Bcl-B/TR3 peptide binding displacement, primary biochemical FP (AID 1240).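 Note: 0% = Bcl-B with tracer peptide and DMSO and 100% = tracer peptide lacking Bcl-B.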 The settings on record: GST-Bcl-B / FITC-TR3 peptide fluorescence polarization; stronger effect = higher value; compound at 3.75 mg/L. On the technique in general: Polarisation of emitted light reports the rotation of a fluorescent probe.
Chain of UniProt Q9HD36 (Q9HD36 whole entry, looked up): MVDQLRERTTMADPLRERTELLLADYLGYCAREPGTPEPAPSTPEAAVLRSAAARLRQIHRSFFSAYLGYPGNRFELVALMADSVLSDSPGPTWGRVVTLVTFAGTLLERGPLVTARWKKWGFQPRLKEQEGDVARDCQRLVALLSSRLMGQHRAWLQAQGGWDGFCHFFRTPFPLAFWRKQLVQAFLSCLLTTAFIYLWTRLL
Take `COc1ccc(S(=O)(=O)N2CCN(Cc3ccc(Br)cc3)CC2)cc1`: the displacement was -4.1%.
For `O=C1C2C3C=CC(C3)C2C(=O)N1/N=C/c1ccc(I)o1` (stereo unspecified) the value was 7.3%; for `Cc1cc(C)cc(N(CC(=O)NC2CC3CCC2C3)S(=O)(=O)c2ccccc2)c1` (stereo unspecified), 6.2%.
Then `Cc1cccc(N=C2NC(=O)/C(=C\c3ccc(Br)cc3)S2)c1C`, with -4.5%; and `CCCCN(CCCC)C(=O)CSc1nc2sc(C)c(C)c2c(=O)[nH]1`, with 10%; and `COc1ccc(C(=O)Oc2ccc(/C=C3\SC(N)=NC3=O)cc2)cc1`, with 10.1%.
In the case of `COC(=O)C1=NNC2(C)C(=O)N(c3ccccc3C)C(=O)C12` (stereo unspecified), the displacement amounted to 1.4%.
With `CC(C)N(CC#CC(O)(c1ccccc1)c1ccccc1)C(C)C`, the displacement was 6.5%.
For the compound `O=S(=O)(Nc1ccc(O)c2ccccc12)c1ccc(F)cc1`, the displacement stood at 12.2%.
As to `CC(=O)N(c1ccccc1)C1C=CS(=O)(=O)C1` (stereo unspecified), the displacement amounted to 0.5%.
`O=C(NCc1cccnc1)c1cccc(F)c1`: the displacement was 6.9%.
Then `CC1=C(C(=O)OCCCc2ccccc2)C(c2ccc(Cl)c(Cl)c2)CC(=O)N1` (stereo unspecified), with -1.9%; and `CCOC(=O)c1sc(NC(=O)c2cc(Cl)ccc2[N+](=O)[O-])c(C(=O)OCC)c1C`, with 1%; and `Cc1sc(NC(=O)C2CC3CCC2C3)c(C(N)=O)c1C` (stereo unspecified), with 3.3%.
For the compound `COc1ccc(N(CC(=O)Nc2ccc(OC)cc2OC)S(=O)(=O)c2ccc(C)cc2)cc1`, the displacement stood at 1.4%.
Turning to `Cc1cc(C)c(OCCCCN2CCCC2)c(Cl)c1`, the displacement turned out to be 13.9%.
For `CCCS(=O)(=O)c1c(S(=O)(=O)CCC)c2cc(-c3ccncc3)ccn2c1C(=O)c1ccc(F)cc1` the value was 3.2%; for `O=C1N/C(=N/N=C/c2ccccc2)SC1Cc1cc(Cl)ccc1Cl` (stereo unspecified), 28.6%; for `COc1cc(NC(=O)c2cnn3c(C(F)(F)F)cc(-c4ccco4)nc23)c(OC)cc1Cl`, 1%.
In the case of `COc1cc(/C=C2/SC(=S)N(CCC(=O)Nc3ccc4c(c3)OCO4)C2=O)cc(OC)c1OC`, the displacement was found to be 16.6%.
Then `CC1=C(C(=O)OCCc2ccccc2)C(c2c(F)cccc2Cl)CC(=O)N1` (stereo unspecified), with -4.5%.
Consider `COc1ccc(C2C(C(=O)OCc3ccccc3)=C(C)NC3=C2C(=O)CCC3)c(OC)c1` (stereo unspecified), for which the displacement was -2.2%.
In the case of `COc1cc(OC)c(C2NC(=S)NC(C)=C2C(=O)Nc2ccccc2)cc1OC` (stereo unspecified), the displacement came out at 6.8%.
As for `O=C1CC(c2ccccc2)CC(O)=C1C=NC1CCCC1` (stereo unspecified), the displacement was -5.4%.
As to `Cc1cc2nc(-c3cccc(NC(=O)c4ccccc4F)c3)oc2cc1C`, the displacement came out at 14.4%.
Turning to `O=C(c1ccncc1)N1CCN(Cc2ccccn2)CC1`, the displacement is -2.5%.
Take `CC1=NN(c2ccccc2)C(=O)C1C=C1C(=O)c2ccccc2C1=O` (stereo unspecified): the displacement was -1.3%.
Consider `CCCCCCCNC1CC(=O)N(c2ccc(Cl)cc2)C1=O` (stereo unspecified), for which the displacement is -4.1%.
Then `Cc1nnc(C)n1/N=C/c1ccccc1O`, with -19%.
Then `CC1=C(C(=O)OC2CCCCCC2)C(c2cccc(F)c2)C2=C(CCCC2=O)N1` (stereo unspecified), with -2.7%; and `O=C(CSc1nc2ccccc2[nH]1)N/N=C/c1cccc(Cl)c1Cl`, with -5.4%; and `CN1C(=O)/C(=C\c2cccc(OCc3cccc4ccccc34)c2)SC1=S`, with 8.7%.
On to `COc1ccc(C2CC(C(F)(F)F)n3nc(C(N)=O)c(Cl)c3N2)cc1OC` (stereo unspecified), for which the displacement came to 4.1%.
With `Cc1ccc(-c2nc3ccccc3o2)cc1NC(=O)c1ccc(-c2ccc([N+](=O)[O-])cc2)o1`, the displacement was 28.3%.
As for `CC1(C)CC(=O)C(C(C2=C(O)CC(C)(C)CC2=O)c2ccc(Cl)cc2Cl)C(=O)C1` (stereo unspecified), the displacement was -1.9%.
Consider `COc1ccc(C2(CNCC(O)COc3ccccc3)CCCC2)cc1OC` (stereo unspecified), for which the displacement was -14.7%.
As for `COc1ccc(N(CC(=O)NCc2ccccc2)S(=O)(=O)c2ccc(C)c([N+](=O)[O-])c2)cc1`, the displacement turned out to be 10.1%.
Then `Cc1ccc(C(=O)CCNc2ccc(C)c(C)c2)o1`, with 6.8%; and `C/C(=C1/C(=O)N(c2nc3ccccc3s2)N=C1CSc1ccc(Cl)cc1)N1CCOCC1`, with -22.3%.
Consider `CC(=O)C1=C(C)NC(=O)NC1c1ccccc1OCc1ccccc1` (stereo unspecified), for which the displacement turned out to be 0.1%.
For `COc1cccc2cc(C(=O)Nc3ccc(C(C)=O)cc3)c(=O)oc12` the value was 16%; for `Cc1ccc(N2NC(=O)/C(=C/c3ccc(N4CCOCC4)cc3)C2=O)cc1C`, 13.3%; for `O=C1/C(=C/c2ccc(O)c(O)c2)SC(=S)N1c1ccc(O)cc1`, -12.9%.
In the case of `CCOc1ccc2nc(NC(=O)c3ccc(OCC(C)C)cc3)sc2c1`, the displacement was determined as 4%.
On to `COc1ccc(OC)c(N2C(=O)CC(Sc3nc4ccccc4s3)C2=O)c1` (stereo unspecified), for which the displacement was found to be 1.7%.
Take `CCOc1ccc(C(=O)Nc2cc(-c3nc4ncccc4o3)ccc2C)cc1[N+](=O)[O-]`: the displacement came out at 4.5%.
For `CCOC(=O)C(CNC(=O)c1ccccc1)(Oc1ccc(Cl)cc1)C(=O)OCC` the value was 15.4%.
Regarding `COc1cc(C(=O)NC(NC(=S)Nc2cc(Cl)ccc2Cl)C(Cl)(Cl)Cl)cc(OC)c1OC` (stereo unspecified), the displacement stood at 12.1%.
On to `COc1ccc(C(=O)Nc2ccc(-c3nc4cc(C)ccc4o3)cc2)cc1Br`, for which the displacement is -5%.
`O=C(Nc1nc2ccc(Cl)cc2s1)c1ccc(Br)cc1`: the displacement was -3.6%.
Regarding `COc1ccc(NS(=O)(=O)c2ccc(Cl)cc2)cc1Cl`, the displacement was -1.1%.
Turning to `COc1ccc(C(NC(=O)Cc2ccccc2)c2c(OC(C)=O)ccc3ccccc23)cc1OC` (stereo unspecified), the displacement was -16.2%.
`COc1ccc(CN2CCN(Cc3cc(Br)ccc3O)CC2)c(OC)c1`: the displacement stood at 1.4%.
As to `CC(C)(C)c1cc(CN2CCN(CCN)CC2)cc(C(C)(C)C)c1O`, the displacement was found to be 5.5%.
For the compound `CCCCc1c(C)nc(N/N=C/c2ccc(OC)cc2OC)[nH]c1=O`, the displacement is -1.9%.
Take `Cc1cc(Cl)ccc1NC(=O)COc1cc(C)c(Cl)c(C)c1`: the displacement came to 5.8%.
Regarding `COc1cc(C2/C(=C(\O)c3ccc([N+](=O)[O-])cc3)C(=O)C(=O)N2CCCCCC(=O)O)ccc1O` (stereo unspecified), the displacement is -7.1%.
Consider `O=C(/C=C/c1ccc(S(=O)(=O)Nc2ccccc2)cc1)C1C(=O)c2ccccc2C1=O`, for which the displacement is 31.1%.
`C=CCN1C(=O)/C(=C\c2ccc(-c3cc(Cl)ccc3Cl)o2)SC1=S`: the displacement came to 65.4%.
Regarding `CC(=O)c1cc(NS(=O)(=O)c2ccc(C)cc2)ccc1O`, the displacement is -14.3%.
Take `CCOC(=O)C1=C(C)N=c2s/c(=C\c3ccccc3F)c(=O)n2C1c1ccc(OC)c(OC)c1` (stereo unspecified): the displacement worked out at 6.3%.
On to `Cc1n[nH]c(C)c1CCCCCOc1ccc([N+](=O)[O-])cc1`, for which the displacement came out at 9%.
Regarding `O=Cc1ccc(OCc2ccccc2F)cc1`, the displacement was -2.7%.
In the case of `CCOC(=O)c1c(C)oc2ccc(OC(=O)c3cc4ccccc4o3)cc12`, the displacement worked out at 9.8%.
For `CCc1cccc(C)c1NC(=O)CCCC(=O)O`, the displacement is 9%.
Consider `COCCCNC(=O)C(=O)NC(C)C`, for which the displacement amounted to 11.3%.
On to `O=C1NC(=Nc2ccc(F)cc2)S/C1=C/c1ccc(Br)cc1`, for which the displacement turned out to be 8%.
On to `C/C(CCc1ccc2c(c1)OCO2)=N\N=C1/NC(=O)CC(C(=O)N2CCN(c3ccc([N+](=O)[O-])cc3)CC2)S1` (stereo unspecified), for which the displacement was -13.7%.
Then `CCC(C)NC(=O)Cn1nc(C(F)(F)F)c(Cl)c1C` (stereo unspecified), with 8.5%; and `O=C(CCc1ccccc1)Nc1ccc(Br)cn1`, with 8.5%.
For the compound `CC1=C(C(=O)OCc2ccccc2)C(c2ccc(F)c(F)c2)C2=C(CC(C)(C)CC2=O)N1` (stereo unspecified), the displacement is -3.6%.
Turning to `O=C(O)C(Cc1ccccc1)N1C(=O)/C(=C/c2cccs2)SC1=S` (stereo unspecified), the displacement was determined as 5.9%.
Consider `O=C(C[n+]1cccc(NC(=O)c2ccccc2)c1)c1ccc2c(c1)Cc1ccccc1-2`, for which the displacement is -7.8%.
With `O=C(Cn1c(NCCCO)nc2ccccc21)c1ccc(Br)s1`, the displacement was found to be 8.7%.
On to `CC(=O)Nc1ccccc1NC(=O)COc1ccccc1`, for which the displacement was -4.2%.
Consider `Cc1nc(SCc2ccccc2)c(C#N)c(C)c1C`, for which the displacement was 2%.
Then `COc1cccc(C(=O)NNC(=O)CCC(=O)O)c1`, with 4.8%; and `O=[N+]([O-])c1ccc(OC/C=C/c2cccc([N+](=O)[O-])c2)cc1`, with -0.9%.
`COc1ccc(NC(=O)CSCCc2ccccn2)c([N+](=O)[O-])c1`: the displacement came to 10.5%.
Consider `O=C(COc1ccccc1)Nc1ccc(Cc2ccncc2)cc1`, for which the displacement stood at 9.6%.
In the case of `O=C1N=C2SC=CN2C(=O)C1Cc1ccccc1` (stereo unspecified), the displacement was 15%.
Turning to `Cc1cc(Cl)ccc1OCC(=O)Nc1ccc(C(N)=O)cc1`, the displacement is 1.1%.
Take `Cc1ccc(/C=N/NS(=O)(=O)c2ccc(C)cc2)cc1`: the displacement was 8%.
For `COc1ccc(CN2CCN(C3CCC(c4ccccc4)CC3)CC2)c(OC)c1OC` (stereo unspecified) the value was -12%.
Consider `Cc1ccc(S(=O)(=O)/N=C/c2ccc(C(F)(F)F)cc2)cc1`, for which the displacement was -6.5%.
For `O=C(c1cc2cc([N+](=O)[O-])ccc2oc1=O)N1CCN(C/C=C/c2ccccc2)CC1`, the displacement is 12.2%.
For the compound `COc1cccc(/C=N/Nc2nnc(-c3ccccc3)c(-c3ccccc3)n2)c1O`, the displacement was determined as 5.8%.
Turning to `Cc1ccc(-c2cc(C(F)(F)F)n3ncc(C(=O)N(C)Cc4ccccc4)c3n2)cc1`, the displacement was determined as 13.5%.
With `CCOC(=O)c1cc(CC)sc1NC(=O)c1cccs1`, the displacement was -4.7%.
Consider `COc1ccc(C(=O)n2nnc3ccccc32)cc1`, for which the displacement is -1.2%.
With `O=[N+]([O-])c1cccc(C2=Nc3ccccc3NC(c3ccccc3)C2)c1` (stereo unspecified), the displacement was -12.7%.
As for `O=C1NC(=O)N(c2ccccc2)C(=O)/C1=C\c1ccc(OCc2ccc(F)cc2)cc1`, the displacement was found to be 0.4%.
Then `O=C(Nc1nc(-c2ccc(Cl)cc2)cs1)c1sc2ccccc2c1Cl`, with -12%.
Regarding `CCCC(=O)Nc1ccc2c(c1)OCCO2`, the displacement was -1%.
As for `COc1cc(OC)cc(C(=O)N2CCN(C)CC2)c1`, the displacement was -10.5%.
For `CCN(CC)C1CC(=O)N(c2ccc(Cl)cc2)C1=O` (stereo unspecified), the displacement was found to be 6.2%.
Take `COc1ccc(/C(O)=C2\C(=O)C(=O)N(CCc3ccccc3)C2c2ccccc2F)cc1` (stereo unspecified): the displacement is 0.5%.
For `CC1=NN(c2ccc(S(N)(=O)=O)cc2)C(=O)/C1=C\c1ccc(-c2ccc(Cl)c(C(=O)OC(C)C)c2)o1`, the displacement was determined as 1.3%.
As for `O=C(Nc1ccc(Br)cc1)C1CCCN1C(=O)OCc1ccccc1` (stereo unspecified), the displacement was 5.7%.
Regarding `CCOC(=O)c1c(N)sc(C(=O)N2CCc3ccccc3C2)c1C`, the displacement amounted to 17.6%.
For the compound `Cc1ccc(C2Nc3ccc(C(=O)c4ccccc4)cc3NC3=C2C(=O)CC(C)(C)C3)o1` (stereo unspecified), the displacement was found to be 17.6%.
Consider `CCOC(=O)C(=O)Nc1ccc(OC)c(Cl)c1`, for which the displacement is -4.3%.
As for `COc1ccc(S(=O)(=O)N/N=C/c2cc3c(cc2Br)OCO3)cc1`, the displacement was -10.4%.
On to `CC1(c2cccs2)CC(c2cccs2)=C(C#N)C(=O)N1` (stereo unspecified), for which the displacement was found to be 21.4%.
Then `COc1ccc(C(=O)Oc2cccc3c(OC)ccc(C=O)c23)cc1OC`, with -8.1%; and `Cc1ccc(C)c(NC(=O)CCCCCCCCCCC2CCCO2)c1` (stereo unspecified), with -3.3%.

These data come from PubChem BioAssay AID1240 (Sanford-Burnham Center for Chemical Genomics, 2008).
